Screen size: about 44,000 compounds; about 340 (0.77%) were called active. Another 5% or so got no clear call; they are omitted. Calls come from the whole dose curve; as a rule, active = well fitted inhibition curve with a large enough effect; inconclusive = small, poorly fitted or top-dose-only effect; inactive = flat fitted curve, though single readings scatter. The list shows a part of the results.
Experiment: Acumen qHTS Assay for Inhibitors of the mTORC1 Signaling Pathway in MEF (Tsc2-/-, p53-/-) Cells: Sytravon;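 note: plate controls were DMSO for no effect and rapamycin for full effect; nearly all actives have a fitted effect of over 50% in size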
Details: phospho-rpS6 immunofluorescence/PI, 24 h; series mostly up to 38.3 µM; activity change, negative = inhibition: at the top concentration
In short: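 Tsc2-/-, p53-/- MEFs (empty-vector stable line) in DMEM + 10% FBS were treated with compounds 24 h at 37 degree Celsius, fixed, and immunostained for phospho-rpS6 (Alexa-488) with propidium iodide counterstain. Laser-scanning cytometry gave % positive cells, normalized against 7.5 nM rapamycin and DMSO.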

Activity change, negative = inhibition, inactive:
Cc1cc(C)cc(-n2c(SCC(=O)N3CCCC3)nc3c([nH]c4ccccc43)c2=O)c1 0.576%
Cn1c(=O)n(-c2ccc3c(c2)OCO3)c2nc(-c3ccc(Cl)cc3)nc(C(N)=O)c21 -2.37%
O=C(CCC1N=C2c3ccccc3N=C(SCc3ccccc3Cl)N2C1=O)NCCc1ccccc1 (stereo unspecified) 0%
Cc1ccccc1NC(=O)CSc1nc(-c2ccc(F)cc2)nc2c1Cc1ccccc1O2 -10.2%
COc1ccc(NC(=O)C2CCN(S(=O)(=O)c3ccc4[nH]c(=O)ccc4c3)CC2)cc1Cl 0.209%
COc1cc(OC)c(NC(=O)C(c2ccccc2)N2Cc3ccccc3C2=O)cc1Cl (stereo unspecified) 2.88%
CCS(=O)(=O)N1CC(=O)N(c2ccc(Cl)cc2C)C(C)(C(=O)NC2CCCCCC2)C1 (stereo unspecified) -6.24%
CCc1nnc(SCc2cccc(F)c2)c2cc3sc(C)cc3n12 -8.39%
CCOc1ccc(N2CC(c3nc4ccccc4n3CCCOc3ccccc3OC)CC2=O)cc1 (stereo unspecified) -4.18%
CC(C)CN(CCCNC(=O)c1cc(-c2ccc(Br)s2)nc2ccccc12)CC(C)C -2.74%
CCOC(=O)c1scc(-c2ccccc2)c1S(=O)(=O)Nc1ccc(N(C)C)cc1 -7.59%
COc1ccc(CCNC(=O)C2(c3cccs3)CCOCC2)cc1 -9.13%
O=C(Nc1nonc1-c1ccc(Cl)cc1)c1ccccc1F -1.18%
COc1ccc(N2CC(NC(=O)/C=C\c3ccc4c(c3)OCO4)CC2=O)cc1 (stereo unspecified) -3.17%
Cc1nnc(SCc2cc(=O)n3cccc(C)c3n2)s1 8.53%
Cc1nn2c(C)c(C(=O)N3CCN(c4ccccc4F)CC3)cnc2c1-c1ccc(F)cc1 -13.3%
COCCCNC(=O)c1ccc(Cn2c(=O)c3ccccc3n(CC(=O)Nc3c(C)cccc3C)c2=O)cc1 -6.73%
CCCCCCNc1nc2c(c(=O)n(C)c(=O)n2C)n1Cc1cccc(C)c1 0.0694%
CCOc1cc(C(=O)Nc2ccc3nc(Nc4cccc(Cl)c4)cc(C)c3c2)cc(OCC)c1OCC -6.52%
Cc1cccc(CCNC(=O)C2CCC(CNS(=O)(=O)c3ccccc3)CC2)c1 (stereo unspecified) -0.986%
COc1cccc(-c2nc(CS(=O)(=O)CC(=O)NCCc3ccc(OC)cc3OC)c(C)o2)c1 -5.11%
CCCC(CCC)C(=O)Nc1cccc(-c2nc3cccnc3s2)c1C -17.1%
O=C(Nc1ccc(F)c(Cl)c1)C1CCN(C(=O)c2ccc(F)cc2)CC1 -16.4%
O=C(NCc1ccccc1Cl)C1CCN(S(=O)(=O)Cc2ccccc2)CC1 -9.96%
CCOC(=O)c1ccc(NC(=O)c2cnn(-c3ccc(C)cc3C)c2C2CCN(C(=O)OC(C)(C)C)CC2)cc1 -14.5%
COc1ccc(Cl)cc1NC(=O)CSC1=Nc2ccccc2C2=NC(CCC(=O)NCc3ccc(F)cc3)C(=O)N12 (stereo unspecified) 2.4%

Reference: PubChem BioAssay AID493208 (National Center for Advancing Translational Sciences (NCATS), 2011)
